# PubChem BioAssay AID651820 (National Center for Advancing Translational Sciences (NCATS), 2012)
# The campaign covered roughly 340,000 compounds. About 12,000 (3.5%) were called active. This list was built around the results that the source calls inconclusive (neither active nor inactive); the mix of calls is not that of the screen. Calls follow the shape of the dose curve; as a rule, active = well fitted inhibition curve with a large enough effect; inconclusive = small, poorly fitted or top-dose-only effect, or another doubt; inactive = no such curve, though single readings can be large or run the other way. Potencies of inconclusive entries are left out as doubtful fits. Non-standard residues stand in square brackets, D forms with d. Residues, ends and D or L forms follow the SMILES beside them. NMeY = CN[C@@H](Cc1ccc(O)cc1)C(=O)O; NMeF = CN[C@@H](Cc1ccccc1)C(=O)O; 2Abz = Nc1ccccc1C(=O)O
# Test: qHTS Assay for Inhibitors of Hepatitis C Virus (HCV)
# Details: Huh7.5.1 HCVcc-Cre (HCVcc is cell-culture hepatitis C virus) infection, luciferase reporter, 44 h; series mostly up to 41.8 µM
# Procedure, shortened: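 Whole-lifecycle infectious HCVcc-Cre system; cells 1,000/well, compound then virus (~0.5 moi) added 4 h after plating, 44 h culture. Luciferase read 15 sec following 15 min substrate incubation, room temp.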
# Potency is read from the fitted curve at half-maximal effect; tags tell the direction and shape of the fitted curve.
row,Structure (SMILES),Potency
1,Cc1ccc(C(=O)N/C(=C\c2ccc(-c3ccccc3[N+](=O)[O-])o2)C(=O)NCCCN2CCOCC2)cc1,active: 25.1 µM
2,CCOC(=O)c1c(/N=C/c2cc(C)ccc2O)sc2c1CCC2,"inconclusive [inhibitor, partial curve]"
3,NS(=O)(=O)c1ccc(CNS(=O)(=O)Cc2ccc(Cl)cc2)cc1,inactive
4,O=C(CNC(=O)c1ccccc1)N/N=C/c1cc(Br)ccc1O,"inconclusive [inhibitor, single point]"
5,CCOC(=O)C1(Nc2nccs2)Sc2ccccc2NC1=O (configuration not stated),"inconclusive [inhibitor, full curve, poor fit]"
6,CSc1ncccc1C(=O)Nc1cc(Cl)ccc1N1CCOCC1,"inconclusive [inhibitor, full curve, poor fit]"
7,O=C(Nc1cccc(S(=O)(=O)N2CCCC2)c1)C1CCCN1C(=O)c1cccs1 (configuration not stated),"inconclusive [inhibitor, single point]"
8,CC(C)C[C@@H]1NC(=O)[C@H](Cc2ccccc2)N(C)C(=O)[C@H](C)NC(=O)c2ccccc2NC(=O)[C@H](Cc2ccc(O)cc2)N(C)C1=O (cyclo([2Abz]A[NMeF]L[NMeY])),active: 8.91 µM
9,COC(=O)C1=CN(C2CCCCC2)C=C(C(=O)OC)C1c1ccc2c(c1)OCO2,"inconclusive [inhibitor, single point]"
10,CCn1c2c(c(=N)c3c1CCC3)CCCC2,inactive
11,Fc1ccc(NC(=S)N2CCCc3ccccc32)cc1,inactive
12,CCOc1cc(-c2noc(N)c2C(=O)OC)cc(OCC)c1OCC,"inconclusive [inhibitor, single point]"
13,Cc1cc([N+](=O)[O-])cc2c1NCC1CC=CC21 (configuration not stated),"inconclusive [inhibitor, partial curve]"
14,Cc1nc(N)c(Cc2ccc(Cl)cc2Cl)c(N)n1,"inconclusive [inhibitor, single point]"
15,CC(C)n1ncc2c(C(=O)Nc3cccc(C#N)c3)cc(C3CC3)nc21,active: 11.2 µM
16,COc1ccc(NC(=O)CN(C)CCOc2ccc(Cl)cc2)cc1OC,"inconclusive [inhibitor, single point]"
17,O=[N+]([O-])c1ccc2c(c1)nc1n2CCN(CC2CCCO2)C1 (configuration not stated),inactive
18,CC1(C)Cc2c(c(N3CCOCC3)nc3snc(Br)c23)CO1,"inconclusive [inhibitor, partial curve]"
19,CCCCCCCCCC[n+]1cccc2c3ccccc3ccc21,active: 3.98 µM
20,Cc1ccc(CCNC(=O)C2CCN(S(=O)(=O)c3cccc4cccnc34)CC2)cc1,"inconclusive [inhibitor, single point]"
21,COCCNC(=S)NN=C1CCCCCC1,inactive
22,Cc1cc(C)c(NC(=O)c2ccc(CN3CCc4ccccc4C3)cc2)c(C)c1,active: 8.91 µM
23,CCOc1cc(C(=O)N/N=C(\C)Cc2ccc(OC)cc2)cc(OCC)c1OCC,"inconclusive [inhibitor, full curve, poor fit]"
24,C[C@@H]1CN([C@@H](C)CO)C(=O)c2cc(NC(=O)C3CC3)ccc2O[C@@H]1CN(C)C(=O)NC1CCCCC1,inactive

row,Structure (SMILES),Potency
1,CCN1CCCc2cc(CN(CCN3CCOCC3)C(=S)Nc3ccccc3C)ccc21,inactive
2,COc1cc(NC(=O)Cc2ccccc2)ccc1NC(=O)Cc1ccccc1,"inconclusive [inhibitor, partial curve]"
3,CC(C)n1cc(/C=C/c2cc[n+](C)cc2)c2ccccc21,active: 31.6 µM
4,COc1ccc(CN2C(=O)c3cccc4cccc(c34)C2=O)cc1,inactive
5,CCN(CCNC(=O)C1CCCN(Cc2nc(-c3ccc(OC)cc3)oc2C)C1)c1ccccc1 (configuration not stated),"inconclusive [inhibitor, single point]"
6,COc1ccccc1OCc1cc(C(=O)N2CC3C[C@@H]4CC2C[C@H](C3)C4)no1,inactive
7,C/C(=N\NC(=O)Cc1ccc(Cl)cc1)c1ccc(F)cc1,inactive
8,Cc1sc(NC(=O)CSc2nc(N)n(CC(=O)c3ccccc3)n2)c(C#N)c1C,"inconclusive [inhibitor, partial curve]"
9,O=C(CSc1nc(-c2ccccc2)cc(C(F)(F)F)n1)c1cccc([N+](=O)[O-])c1,"inconclusive [inhibitor, full curve]"
10,COC(=O)c1ccccc1C(=O)N1CCOCCN(C(=O)c2ccccc2C(=O)OC)CCOCC1,inactive
11,Oc1c(C=C2N=c3ccccc3=N2)sc(=S)n1C1CCCC1,inactive
12,Cc1ccc(NC(=O)CCNC(=O)c2ccc([N+](=O)[O-])cc2)cc1S(=O)(=O)N(C)C,"inconclusive [inhibitor, partial curve]"
13,Cc1ccc(C)c(NC(=S)NCCN2CCOCC2)c1,inactive
14,Nc1ccccc1NC(=O)NC(=O)c1ccccc1,inactive
15,O=S(=O)(Nc1ccc(Cl)cc1)c1ccc2c(c1)CCO2,inactive
16,CC(C)n1c(O)c(N=Nc2ccccn2)c2ccccc21,"inconclusive [inhibitor, full curve, poor fit]"
17,Cc1ccc(Cl)cc1N1CCN(C(=O)C(C)n2ncn3cccc3c2=O)CC1 (configuration not stated),"inconclusive [inhibitor, single point]"
18,O=C(CNC(=O)c1ccccc1)OC(C(=O)c1ccccc1)c1ccccc1 (configuration not stated),inactive
19,Cc1ccc(NC(=O)/C=C/c2ccc3c(c2)OCO3)cc1S(=O)(=O)N1CCOCC1,"inconclusive [inhibitor, partial curve]"
20,CCOC(=O)Cc1csc(NC(=O)c2cc(OC)cc(OC)c2)n1,"inconclusive [inhibitor, full curve, poor fit]"
21,COc1ccccc1NC(=O)Nc1ccc(-n2ccc(C(F)(F)F)n2)cc1,active: 5.62 µM
22,COc1ccc(C(=O)Nc2nc3ccccc3s2)c(OC)c1,inactive
23,O=C(NCCc1ccc(Cl)cc1)c1ccc(CS(=O)Cc2ccc(Cl)cc2)o1 (configuration not stated),"inconclusive [inhibitor, partial curve]"
